{
  "source": "the supplement of paper PMC8728848",
  "binders": {"B1": {"name": "Gal 8 (Mus musculus), Q9JL15 (protein)", "chain": "MGGSHHHHHHGMASMLSLNNLQNIIYNPIIPYVGTITEQLKPGSLIVIRGHVPKDSERFQVDFQLGNSLKPRADVAFHFNPHFKRSSCIVCNTLTQEKWGWEEITYDMPFRKEKSFEIVFMVLKNKFQVAVNGRHVLLYAHRISPEQIDTVGIYGKVNIHSIGFRFSSASALPHTLGDLQSMETSALGLTQINRENIQKPGKLQLSLPFEARLNASMGPGRTVVIKGEVNTNARSFNVDLVAGKTRDIALHLNPHLNVKAFVRNSFLQDAWGEEERNITCFPFSSGMYFEMIIYCDVREFKVAINGVHSLEYKHRFKDLSSIDTLSVDGDIRLLDVRSW"}},
  "assay_in_all_cases": "glycan array binding signal (z-score within array); higher = stronger binding",
  "settings_in_all_cases": "glycan notation: IUPAC condensed, linker removed; mutation: R82H, R255H",
  "key": {"[1]": {"target": "Neu5Ac(a2-3)Gal(b1-4)GlcNAc(b1-2)Man(a1-3)[Neu5Ac(a2-6)Gal(b1-4)GlcNAc(b1-2)Man(a1-6)]Man(b1-4)GlcNAc(b1-4)GlcNAc", "method_in_brief": "(§1)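 The binding signal is a Z-score computed within each array and averaged over linkers. Arrays of the same protein sequence at different concentrations or buffers were also averaged together. Data originate from 3228 arrays in the Consortium for Functional Glycomics database, kept only where the protein sequence was available.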"}, "[2]": {"target": "Neu5Ac(a2-3)Gal(b1-4)GlcNAc(b1-2)[Neu5Ac(a2-3)Gal(b1-4)GlcNAc(b1-4)]Man(a1-3)[GlcNAc(b1-4)][Neu5Ac(a2-3)Gal(b1-4)GlcNAc(b1-2)[Neu5Ac(a2-3)Gal(b1-4)GlcNAc(b1-6)]Man(a1-6)]Man(b1-4)GlcNAc(b1-4)GlcNAc", "method_in_brief": "as §1"}, "[3]": {"target": "Neu5Ac(a2-3)Gal(b1-4)GlcNAc(b1-2)[Neu5Ac(a2-3)Gal(b1-4)GlcNAc(b1-4)]Man(a1-3)[GlcNAc(b1-4)][Neu5Ac(a2-3)Gal(b1-4)GlcNAc(b1-4)Man(a1-6)]Man(b1-4)GlcNAc(b1-4)GlcNAc", "method_in_brief": "as §1"}, "[4]": {"target": "Neu5Ac(a2-3)Gal(b1-4)GlcNAc(b1-2)[Neu5Ac(a2-3)Gal(b1-4)GlcNAc(b1-6)]Man(a1-6)[Neu5Ac(a2-3)Gal(b1-4)GlcNAc(b1-2)Man(a1-3)][GlcNAc(b1-4)]Man(b1-4)GlcNAc(b1-4)GlcNAc", "method_in_brief": "as §1"}, "[5]": {"target": "Neu5Ac(a2-3)Gal(b1-4)GlcNAc(b1-3)Gal", "method_in_brief": "as §1"}, "[6]": {"target": "Neu5Ac(a2-3)Gal(b1-4)GlcNAc(b1-3)Gal(b1-3)GlcNAc", "method_in_brief": "as §1"}, "[7]": {"target": "Neu5Ac(a2-3)Gal(b1-4)GlcNAc(b1-3)Gal(b1-4)GlcNAc", "method_in_brief": "as §1"}, "[8]": {"target": "Neu5Ac(a2-3)Gal(b1-4)GlcNAc(b1-3)Gal(b1-4)GlcNAc(b1-2)Man(a1-3)[Neu5Ac(a2-3)Gal(b1-4)GlcNAc(b1-3)Gal(b1-4)GlcNAc(b1-2)Man(a1-6)]Man(b1-4)GlcNAc(b1-4)GlcNAc", "method_in_brief": "as §1"}, "[9]": {"target": "Neu5Ac(a2-3)Gal(b1-4)GlcNAc(b1-3)Gal(b1-4)GlcNAc(b1-3)Gal(b1-4)GlcNAc", "method_in_brief": "as §1"}, "[10]": {"target": "Neu5Ac(a2-3)Gal(b1-4)GlcNAc(b1-3)Gal(b1-4)GlcNAc(b1-3)Gal(b1-4)GlcNAc(b1-2)Man(a1-3)[Neu5Ac(a2-3)Gal(b1-4)GlcNAc(b1-3)Gal(b1-4)GlcNAc(b1-3)Gal(b1-4)GlcNAc(b1-2)Man(a1-6)]GalNAc", "method_in_brief": "as §1"}, "[11]": {"target": "Neu5Ac(a2-3)Gal(b1-4)GlcNAc(b1-3)Gal(b1-4)GlcNAc(b1-3)GalNAc", "method_in_brief": "as §1"}, "[12]": {"target": "Neu5Ac(a2-3)Gal(b1-4)GlcNAc(b1-3)Gal(b1-4)GlcNAc(b1-3)[Neu5Ac(a2-3)Gal(b1-4)GlcNAc(b1-3)Gal(b1-4)GlcNAc(b1-6)]GalNAc", "method_in_brief": "as §1"}, "[13]": {"target": "Neu5Ac(a2-3)Gal(b1-4)GlcNAc(b1-3)Gal(b1-4)GlcNAc(b1-6)[Gal(b1-3)]GalNAc", "method_in_brief": "as §1"}, "[14]": {"target": "Neu5Ac(a2-3)Gal(b1-4)GlcNAc(b1-3)Gal(b1-4)[Fuc(a1-3)]GlcNAc", "method_in_brief": "as §1"}, "[15]": {"target": "Neu5Ac(a2-3)Gal(b1-4)GlcNAc(b1-3)GalNAc", "method_in_brief": "as §1"}, "[16]": {"target": "Neu5Ac(a2-3)Gal(b1-4)GlcNAc(b1-3)[Neu5Ac(a2-3)Gal(b1-4)GlcNAc(b1-6)]GalNAc", "method_in_brief": "as §1"}, "[17]": {"target": "Neu5Ac(a2-3)Gal(b1-4)GlcNAc(b1-6)GalNAc", "method_in_brief": "as §1"}, "[18]": {"target": "Neu5Ac(a2-3)Gal(b1-4)GlcNAc(b1-6)[Gal(b1-3)]GalNAc", "method_in_brief": "as §1"}, "[19]": {"target": "Neu5Ac(a2-3)Gal(b1-4)GlcNAc(b1-6)[Neu5Ac(a2-3)Gal(b1-3)]GalNAc", "method_in_brief": "as §1"}, "[20]": {"target": "Neu5Ac(a2-3)Gal(b1-4)GlcNAc6S", "method_in_brief": "as §1"}, "[21]": {"target": "Neu5Ac(a2-3)Gal(b1-4)[Fuc(a1-3)]GlcNAc", "method_in_brief": "as §1"}, "[22]": {"target": "Neu5Ac(a2-3)Gal(b1-4)[Fuc(a1-3)]GlcNAc(b1-2)Man", "method_in_brief": "as §1"}, "[23]": {"target": "Neu5Ac(a2-3)Gal(b1-4)[Fuc(a1-3)]GlcNAc(b1-3)Gal", "method_in_brief": "as §1"}, "[24]": {"target": "Neu5Ac(a2-3)Gal(b1-4)[Fuc(a1-3)]GlcNAc(b1-3)Gal(b1-4)GlcNAc", "method_in_brief": "as §1"}, "[25]": {"target": "Neu5Ac(a2-3)Gal(b1-4)[Fuc(a1-3)]GlcNAc(b1-3)Gal(b1-4)[Fuc(a1-3)]GlcNAc(b1-3)Gal(b1-4)[Fuc(a1-3)]GlcNAc", "method_in_brief": "as §1"}, "[26]": {"target": "Neu5Ac(a2-3)Gal(b1-4)[Fuc(a1-3)]GlcNAc(b1-3)GalNAc", "method_in_brief": "as §1"}, "[27]": {"target": "Neu5Ac(a2-3)Gal(b1-4)[Fuc(a1-3)]GlcNAc(b1-6)[Gal(b1-3)]GalNAc", "method_in_brief": "as §1"}, "[28]": {"target": "Neu5Ac(a2-3)Gal(b1-4)[Fuc(a1-3)]GlcNAc(b1-6)[Neu5Ac(a2-3)Gal(b1-3)]GalNAc", "method_in_brief": "as §1"}, "[29]": {"target": "Neu5Ac(a2-3)Gal(b1-4)[Fuc(a1-3)]GlcNAc6S", "method_in_brief": "as §1"}, "[30]": {"target": "Neu5Ac(a2-3)Gal6S(b1-4)GlcNAc", "method_in_brief": "as §1"}, "[31]": {"target": "Neu5Ac(a2-3)Gal6S(b1-4)[Fuc(a1-3)]GlcNAc", "method_in_brief": "as §1"}, "Neu5Ac(a2-3)GalNAc": {"target": "Neu5Ac(a2-3)GalNAc", "method_in_brief": "as §1"}, "[32]": {"target": "Neu5Ac(a2-3)GalNAc(b1-4)GlcNAc", "method_in_brief": "as §1"}, "[33]": {"target": "Neu5Ac(a2-3)[GalNAc(b1-4)]Gal(b1-4)Glc", "method_in_brief": "as §1"}, "[34]": {"target": "Neu5Ac(a2-3)[GalNAc(b1-4)]Gal(b1-4)GlcNAc", "method_in_brief": "as §1"}, "[35]": {"target": "Neu5Ac(a2-3)[GalNAc(b1-4)]Gal(b1-4)GlcNAc(b1-3)GalNAc", "method_in_brief": "as §1"}, "[36]": {"target": "Neu5Ac(a2-3)[Neu5Ac(a2-6)]GalNAc", "method_in_brief": "as §1"}},
  "note": "Some of the results follow.",
  "data": [
    {"binder": "B1", "values": [
      {"measurement": "glycan array binding signal (z-score)", "setting": "[1]", "value": -0.286},
      {"measurement": "glycan array binding signal (z-score)", "setting": "[2]", "value": -0.27},
      {"measurement": "glycan array binding signal (z-score)", "setting": "[3]", "value": -0.278},
      {"measurement": "glycan array binding signal (z-score)", "setting": "[4]", "value": -0.278},
      {"measurement": "glycan array binding signal (z-score)", "setting": "[5]", "value": -0.283},
      {"measurement": "glycan array binding signal (z-score)", "setting": "[6]", "value": -0.275},
      {"measurement": "glycan array binding signal (z-score)", "setting": "[7]", "value": -0.292},
      {"measurement": "glycan array binding signal (z-score)", "setting": "[8]", "value": -0.14},
      {"measurement": "glycan array binding signal (z-score)", "setting": "[9]", "value": -0.148},
      {"measurement": "glycan array binding signal (z-score)", "setting": "[10]", "value": 0.079},
      {"measurement": "glycan array binding signal (z-score)", "setting": "[11]", "value": -0.253},
      {"measurement": "glycan array binding signal (z-score)", "setting": "[12]", "value": -0.255},
      {"measurement": "glycan array binding signal (z-score)", "setting": "[13]", "value": -0.256},
      {"measurement": "glycan array binding signal (z-score)", "setting": "[14]", "value": -0.26},
      {"measurement": "glycan array binding signal (z-score)", "setting": "[15]", "value": -0.229},
      {"measurement": "glycan array binding signal (z-score)", "setting": "[16]", "value": -0.262},
      {"measurement": "glycan array binding signal (z-score)", "setting": "[17]", "value": 0.834},
      {"measurement": "glycan array binding signal (z-score)", "setting": "[18]", "value": -0.272},
      {"measurement": "glycan array binding signal (z-score)", "setting": "[19]", "value": -0.275},
      {"measurement": "glycan array binding signal (z-score)", "setting": "[20]", "value": -0.249},
      {"measurement": "glycan array binding signal (z-score)", "setting": "[21]", "value": -0.271},
      {"measurement": "glycan array binding signal (z-score)", "setting": "[22]", "value": -0.258},
      {"measurement": "glycan array binding signal (z-score)", "setting": "[23]", "value": -0.272},
      {"measurement": "glycan array binding signal (z-score)", "setting": "[24]", "value": -0.244},
      {"measurement": "glycan array binding signal (z-score)", "setting": "[25]", "value": -0.253},
      {"measurement": "glycan array binding signal (z-score)", "setting": "[26]", "value": -0.091},
      {"measurement": "glycan array binding signal (z-score)", "setting": "[27]", "value": -0.236},
      {"measurement": "glycan array binding signal (z-score)", "setting": "[28]", "value": -0.18},
      {"measurement": "glycan array binding signal (z-score)", "setting": "[29]", "value": -0.26},
      {"measurement": "glycan array binding signal (z-score)", "setting": "[30]", "value": -0.273},
      {"measurement": "glycan array binding signal (z-score)", "setting": "[31]", "value": -0.279},
      {"measurement": "glycan array binding signal (z-score)", "setting": "Neu5Ac(a2-3)GalNAc", "value": -0.253},
      {"measurement": "glycan array binding signal (z-score)", "setting": "[32]", "value": -0.268},
      {"measurement": "glycan array binding signal (z-score)", "setting": "[33]", "value": -0.29},
      {"measurement": "glycan array binding signal (z-score)", "setting": "[34]", "value": -0.267},
      {"measurement": "glycan array binding signal (z-score)", "setting": "[35]", "value": -0.242},
      {"measurement": "glycan array binding signal (z-score)", "setting": "[36]", "value": -0.007}
    ]}
  ]
}
